Sequences with one replicate were seen in a single cluster, so their values are uncertain.
Test system: ATP
Assay: switch fluorescence ratio, 500 uM ATP over buffer (Cy3 cluster intensity, sum of 5 cycles each) (fold (ratio)); higher = stronger signal-on switching upon ATP binding; sequences stand for … in TCGTCGGCAGCGTCAGATGTGTATAAGAGACAGTTTTTTTTTTTTTTTTTTTTTTTTT…TC
Conditions: aptamer strand: ATP DNA aptamer (quencher-CACCTGGGGGAGTATTGCGGAGGAAGG + anchor), 100 nM annealed; ATP concentration: 500 uM; one replicate
How it was run: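 Exposure to 500 uM ATP lasted 15 min at 22 °C before imaging, and a selection-buffer image was taken beforehand, for Cy3-labelled switching-strand clusters on a modified Illumina MiSeq flow-cell annealed to 100 nM quencher-labelled ATP aptamer. Five buffer/ATP cycles were run with NaOH stripping and re-annealing between them. The fluorescence ratio per cluster is summed target-cycle over summed buffer-cycle Cy3 intensity, averaged per switch-domain sequence. Clusters outside 100-1000 RFU were excluded.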

Sequence	switch fluorescence ratio
GCGGGACGGG	0.976
ATTTAAGTG	0.997
GGCTTTTTCG	1.07
CGCACCTAAG	1.14
TTGTCGAGA	1.01
GGGTCGAATG	0.98
TCGCTGCCCT	0.97
AGCCGTTCCT	1.04
GGCTAAGCT	1
CTCTATACAC	1.18
GCGAGTACTG	1.04
GGGTGTTAAA	0.953
GTACCTACAC	1.3
GCTTGCGTTC	1.03
ATTCGCCGT	1.07
ACAACATGTG	1.03
GCGCTGGGTT	1.03
TATAGTCGGT	0.988
AGGCTGAATC	0.982
CCATTAGGGA	1.02
ATGTAAGAGA	1.02
CGGTGTGCA	1.11
GGCCTACTTA	1.04
ATTTAGTAGG	0.999
CAATGAGAGC	0.974

Sequence	switch fluorescence ratio
GCGCAAGAGA	1.06
CAAGGTGTGG	1.06
CATTAGTATT	1.02
ACCTTATAGT	1.01
TCAGAGGATG	0.996
TTTTGAGCAG	0.977
TGCACTAAGT	1.01
AAATGAATAC	1.14
GAGCTAGGA	0.985
AATTTTACCT	1.26
AACGGCAAAA	1.36
ACAGACGATA	1.25
TAAGGATAGG	0.988
GTCGGTGTTT	0.99
GTGAGGAATA	1.1
GTAAAGTCCA	0.982
CACGTGGATT	1.04
GAGACGCTAA	1.28
CCGGCCCTGT	1.04
ATGCCTGTTA	0.982
ATGCTGCCAC	1.02
TAGCATACGA	2.98
GTGGGGTT	1.05
AAATGACGCG	1.22
GGGTCGTGTA	1.06

Sequence	switch fluorescence ratio
CCTGAATGGT	0.964
CAATAGACGC	1.06
GTTGGACCTA	1.01
GCTCATATTG	0.994
TAGAGCTTGA	0.931
AATCCCTGAG	1.12
ACACCTTCGC	2.06
TACTTGTTG	0.962
CGCAGAAAAC	1.06
CGAGAGTAGG	1
GGGTAGCCTT	0.983
ATCGGTTTGT	1.02
AAGGTGTCA	1.04
TTCAACTGTT	1
ATTTCCCTTT	0.999
TGGAGGTCGA	0.978
GGCGGTTAAC	1.29
GCATGTATTC	1.06
TAACGTTTCC	1.55
ATGCGAGGAC	1.01
TGACAGAAGC	1.02
CAGTTGCGTT	0.97
GACGAAACCC	1.39
CTAAGAATCA	1
GGGGACTCTG	0.991

Sequence	switch fluorescence ratio
CTATTTCCTG	1
AACTATGTCG	0.974
GGCCAAAGAA	1.04
CGGGTTGCTG	0.994
CGACCGCTGA	3.39
AGCGGACAAG	0.982
GGTGCTGATT	0.972
TGTCTGATTT	1
CTTATCACAC	1.01
TGGGAAG	0.999
CATGCGGTGG	0.977
AATCATAAA	0.982
TTGTTACGAT	1.04
AGTAAGAGGT	0.954
AGGTCGTGCA	0.99
CTTACGACAA	2.23
GAGCTACAGT	1.01
TTTGTCTACT	1.01
ATGAGACTC	0.988
ATTATAGTTC	1
ATACGTTC	1.02
CATTAGGAGG	0.97
CTAAGATTTA	0.982
AACCTGCAAT	4.98
AGTTCCCAGT	0.999

Source: the supplement of paper PMC10126150
